# PubChem BioAssay AID1159614 (National Center for Advancing Translational Sciences (NCATS), 2016)
# In all, about 45,000 compounds went through this assay and about 65 (0.1%) were called active. Calls follow the shape of the dose curve; as a rule, active = well fitted activation curve with a large enough effect; inconclusive = small, poorly fitted or top-dose-only effect; inactive = no such curve, though single readings can be large or run the other way. Some of the results follow.
# Biological target: Galactocerebrosidase (Homo sapiens) (UniProt P54803)
# Assay: A Novel Cell-Based Assay to Identify Small Molecules for B -Galactocerebrosidase; also: nearly all actives have a fitted effect of over 65% in size; as to activation: 0% is about no effect
# Conditions: 145M-Twi-hGALC-G270D cells (Twitcher mouse brain line with human GALC G270D), HMU-beta-Gal fluorescence, 48 h; series mostly up to 57.5 µM; activation: at the top concentration
# Procedure, shortened: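 Fluorogenic HMU-b-Gal hydrolysis (0.1 mM final, pH 5.2 citrate-phosphate with 1 mg/mL sodium taurocholate; carbonate stop buffer) measures mutant GALC activity after compound treatment of live 145M-Twi Twitcher brain cells stably carrying human GALC-G270D, with wild-type GALC line alongside; activation sought.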
# Potency is read from the fitted curve at half-maximal effect.
# UniProt P54803, sequence (P54803 whole entry, looked up): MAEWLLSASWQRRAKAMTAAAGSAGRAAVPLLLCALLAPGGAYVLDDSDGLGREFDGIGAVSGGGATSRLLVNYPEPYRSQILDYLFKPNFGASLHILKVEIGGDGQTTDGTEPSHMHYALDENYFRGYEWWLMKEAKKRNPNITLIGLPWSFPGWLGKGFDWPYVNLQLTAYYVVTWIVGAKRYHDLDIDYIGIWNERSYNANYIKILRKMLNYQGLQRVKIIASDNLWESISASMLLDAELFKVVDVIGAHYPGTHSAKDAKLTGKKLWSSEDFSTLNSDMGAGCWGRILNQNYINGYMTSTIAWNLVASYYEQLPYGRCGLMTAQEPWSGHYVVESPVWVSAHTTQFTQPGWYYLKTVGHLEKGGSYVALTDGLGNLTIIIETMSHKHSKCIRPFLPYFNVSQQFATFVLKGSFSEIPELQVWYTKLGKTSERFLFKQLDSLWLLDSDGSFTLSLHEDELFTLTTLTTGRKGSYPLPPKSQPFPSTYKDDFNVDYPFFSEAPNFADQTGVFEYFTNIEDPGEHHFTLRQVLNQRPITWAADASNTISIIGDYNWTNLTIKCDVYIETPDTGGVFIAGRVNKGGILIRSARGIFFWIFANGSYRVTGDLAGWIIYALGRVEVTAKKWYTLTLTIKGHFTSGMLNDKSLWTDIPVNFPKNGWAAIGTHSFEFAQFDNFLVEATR
Compound,activation,Potency
COc1cccc(-c2nc(CS(=O)(=O)CC(=O)Nc3ccc(C)c(Cl)c3)c(C)o2)c1,inactive: -46.7%,
Cc1cccc(NC(=O)c2cc3c([nH]c2=O)CC(c2ccccc2)CC3=O)c1 (stereo not drawn),inactive: -4.35%,
COc1ccc(CCNC(=O)Cc2ccc(NC(=O)N3CCSc4ncccc43)cc2)cc1OC,inactive: -12%,
O=C(CSc1nc2ccsc2c(=O)n1-c1ccc(Br)cc1)NCc1ccc(Cl)cc1,inactive: -13.8%,
COc1cc(C(=O)NCc2nc(-c3ccc(Cl)cc3)no2)cc(OC)c1OC,inactive: -11%,
COC(=O)CCNC(=O)N1CCN(c2nnc(C)c3c(C)n(-c4ccccc4)nc23)CC1,inactive: -18.1%,
O=C(Cn1c(=O)n(Cc2ccc(F)cc2)c(=O)c2sc3ccccc3c21)Nc1ccc(F)cc1F,inactive: -18.7%,
COc1cccc(CNC(=O)Cn2cccc2C(=O)c2ccccc2)c1,inactive: -5.77%,
Cc1cccc(CN2C(=O)c3ccccc3S(=O)(=O)c3ccc(C(=O)OCC4CCCO4)cc32)c1 (stereo not drawn),inactive: -0.93%,
CCc1ccc(CNC(=O)C2COc3ccccc3C2)cc1 (stereo not drawn),inactive: -3.2%,
COc1cc(NS(=O)(=O)c2cc3[nH]c(=O)[nH]c3cc2C)cc(OC)c1OC,inactive: -1.83%,
Cc1cccc(C)c1NC(=O)CC12CCCN1CCC2,inactive: -10.8%,
COc1ccc(NC(=O)CSCc2cc(=O)c3cc(Cl)ccc3[nH]2)cc1,inactive: -2.94%,
Cc1ccc(N2CC(NC(=O)C3CCCCC3)CC2=O)cc1 (stereo not drawn),inactive: -7.91%,
CCOC(=O)c1cc(S(=O)(=O)N2CCN(c3ccccc3OC)CC2)[nH]n1,inactive: -9.34%,
Cc1cccc(C(=O)Nc2cc(-c3ccccc3F)nn2-c2ccccc2)c1,inactive: -13.6%,
CCOc1ccc(C2CC(=O)Nc3c2c(=O)[nH]c2ncnn32)cc1 (stereo not drawn),inactive: -7.04%,
CCc1ccc(C(=O)c2cn(CC(=O)Nc3ccc(F)cc3)c3ccc(F)cc3c2=O)cc1,inactive: -21.8%,
CCn1c(CNC(=O)c2ccc(OC)cc2)nnc1SCC(=O)Nc1ccc(F)cc1,inactive: 8.12%,
O=C(O)c1ccc(OCCCOc2ccc(C(=O)O)cc2)cc1,inactive: -18.6%,
COc1ccc(C(C)=O)cc1CSc1nc(NCc2ccccc2)c2ccccc2n1,inactive: -13.4%,

Compound,activation,Potency
COc1ccc(NC(=O)C(C)N2Cc3ccccc3C2=O)cc1OC (stereo not drawn),inactive: -16.7%,
Cc1ccc2c(c1)-c1c(cnc3cc(-c4ccc(Cl)cc4)nn13)CO2,inactive: -15.3%,
COc1ccccc1CNC(=O)c1ccc2c(c1)nc(C)n2-c1cccc(C)c1,inactive: -11.7%,
Cc1ccc(CCNC(=O)c2sc3nc4n(c(=O)c3c2C)CCCC4)cc1,inactive: -13.4%,
CC(CNC(=O)c1cc2cc(S(=O)(=O)N3CCCCC3)ccc2n1C)c1ccccc1 (stereo not drawn),inactive: 3.36%,
Cc1ccc2onc(CNC(=O)N3CCN(c4cc(Cl)ccc4C)CC3)c2c1,inactive: -9.85%,
Cc1ccc(COC(=O)c2[nH]c3c(c2C)C(=O)CC(c2ccc(Cl)cc2)C3)cc1 (stereo not drawn),inactive: -12.5%,
CC(C)OC(=O)c1ccc(NC(=O)CSc2nc(-c3cccs3)cc(C(F)(F)F)n2)cc1,inactive: -2.19%,
CC(C)CC(=O)n1nc(-c2ccco2)nc1NCc1ccc(Cl)cc1,inactive: -9.16%,
Cc1ccc2c(c1)c(=O)c1ccccc1n2CCCC(=O)Nc1ccc(C)c(C)c1,,active: 39.8 µM
COc1ccccc1NC(=O)CCNS(=O)(=O)c1ccc2c(c1)CCN2C(=O)C1CC1,inactive: -12%,
O=c1c(NCCc2ccc(Cl)cc2)nccn1-c1ccccc1,inactive: -4.46%,
COC(=O)c1ccc(-n2nnc(-c3nsc(NC(=O)c4ccc(Cl)cc4)n3)c2C)cc1,inactive: -5.89%,
CCCSc1ncc(Cl)c(C(=O)Nc2sc3c(c2C(N)=O)CCCC3)n1,inactive: -8.8%,
Cc1ccccc1CNC(=O)Cc1csc2ccccc12,inactive: -11.1%,
O=C(OCC(O)CO)c1ccccc1Nc1ccnc2cc(Cl)ccc12 (stereo not drawn),inactive: -16.1%,
CCN(CC)C(=O)c1sc2c(c1C)c(=O)n(Cc1ccccc1)c(=O)n2CC(=O)Nc1ccc(OC)cc1,inactive: -11.8%,
CN(c1ccccc1)S(=O)(=O)c1nnc(NC(=O)c2cccs2)s1,inactive: -18%,
CCN(Cc1ccccc1)C(=O)CCS(=O)(=O)c1cc(Br)cc2c1N(C(=O)C1CC1)CC2,inactive: -14.8%,
CCOC(=O)c1c(C)oc2ccc(N(C(=O)c3ccncc3)S(=O)(=O)c3ccc(F)cc3)cc12,inactive: -10.5%,
COc1ccc(OC)c(CCNC(=O)c2cc3cccc4c3n2CCS4)c1,inactive: -13.4%,

Compound,activation,Potency
Cc1ccc(C)c(N2CCN(S(=O)(=O)c3ccc(F)c(C(=O)Nc4ccc(Cl)cc4Cl)c3)CC2)c1,inactive: -18%,
Cc1cc2n(n1)CCCN2C(=O)Nc1ccc(C)c(Cl)c1,inactive: -9.05%,
O=C(NCc1cccc(F)c1)C1CCN(c2nn3cc(-c4ccc(F)cc4)nc3s2)CC1,inactive: 9.97%,
N#Cc1ccccc1Cn1c(=O)n(-c2ccccc2)c(=O)c2c3c(sc21)CCC3,inactive: -16.1%,
CCc1ccc(NC(=O)Cn2nnc(C(=O)NCCc3ccccc3)c2N)cc1,inactive: -16.4%,
CCOc1ccccc1NC(=O)Cn1c(=O)n(CCCCC(=O)NCCCOC)c(=O)c2ccccc21,inactive: 0.184%,
c1ccc2[nH]ccc2c1,inactive: -11.5%,
CCc1ccccc1N(C)C(=O)c1cc2c(Cl)nc3ccc(C)cc3c2s1,inactive: -15.1%,
Cc1ccc2[nH]c3c(=O)n(CC(=O)NCCCN4CCN(c5ccc(F)cc5)CC4)ncc3c2c1,inactive: -18%,
Cc1cc(C)cc(N(CC(=O)Nc2ccc(C)cc2Cl)S(=O)(=O)c2c(C)[nH]c(=O)[nH]c2=O)c1,inactive: -16.1%,
COCCCNC(=O)C1CCN(C(=O)c2ccc(-n3ccc4ccccc43)s2)CC1,inactive: -25.7%,
Cc1ccccc1CNCCSc1nnnn1C,inactive: 2.7%,
CC1CCN(S(=O)(=O)c2ccc3c(c2)oc(=O)n3CC(=O)N2CCCCC2)CC1,inactive: -10.4%,
O=C(Nc1ccc(O)c(-c2nc3ccccc3o2)c1)c1ccc(-c2cccc(Cl)c2)o1,inactive: -25.1%,
Cc1cccc(C)c1NC(=O)c1nc(SC(C)C)ncc1Cl,inactive: -12.5%,
COc1ccc(NC(=O)CCS(=O)(=O)c2cc3c4c(c2)CCN4C(=O)CC3)cc1OC,inactive: -0.395%,
COc1cc2c(N3CCN(C(=O)Nc4ccc(OC(C)C)cc4)CC3)ncnc2cc1OCCCN1CCCCC1,inactive: -9.21%,
CCC(C(=O)Nc1ccc(F)cc1F)n1nc(-c2ccccc2)c2c(c1=O)CCCC2 (stereo not drawn),inactive: -14.4%,
Cc1ccccc1Nc1c(-c2ccc(O)cc2)nc2c(C)cccn12,inactive: -36.6%,
NC(=O)c1cn(Cc2c(F)cccc2F)nn1,inactive: -11.6%,
COc1cccc(CNC(=O)CSc2nnc(C)c3c(C)n(-c4ccccc4)nc23)c1,inactive: -7.67%,
